According to paper PMC4207660, “Identification and Characterization of Hundreds of Potent and Selective Inhibitors of Trypanosoma brucei Growth from a Kinase-Targeted Library Screening Campaign” (PLoS Neglected Tropical Diseases, 2014):
Values after ≈ are worked out from the molar mass of the structure shown.

Columns and labels:
[1] = tested on: T. brucei brucei parasites (Lister 427 strain); assay: Dose response growth inhibition assay (resazurin, 72 h); format: cell-based; settings: Trypanosoma brucei; T. b. brucei growth inhibition; read-out: Tbb pEC50 (converted)
Experimental: Greiner sterile black clear bottom 384-well assay plates were pre-dispensing with 200 nL of compound in each well, from master plates at 1 mM (100% DMSO) containing selection from the GSK compound collection. Controls of 0% response (control 1, 200 nL of 100%DMSO) and 100% response (control 2, 200 nL of 1 mM pentamidine) were included in each assay plate in columns 6 and 18, respectively. Plates containing 200 nL of 100% DMSO were included randomly in the assay, to assess quality through all process. […] After this period, 10 µL of 200 µM resazurin solution in prewarmed HMI-9 were added to each well, and plates were allowed to incubate 2 hours more prior fluorescence reading in a Wallac EnVision Multilabel Plate Reader (Perkin-Elmer). Raw fluorescent data from the Envision plate reader were uploaded into GSK HTS database (ActivityBase). Activity of each well was normalized as a percentage of inhibition per-plate basis using the following equation: [drawing 1]
For dose-response experiments, serial compound dilutions of selected hits from the primary campaign were plotted against compound concentration. Dose response master plates were prepared by 3-fold dilutions (starting with 10 mM DMSO stock solutions), providing 11 concentrations. From these master plates, 200 nL per well was stamped in final assay plates, including the same controls describe in the primary single shot assay. Compounds were dispensed as serial dilution curve format, with 11 points at 3-fold dilution and 40 µM as starting top concentration (n = 2). Growth inhibition assay was performed as described in previous assay.
A 4-parameter equation describing a sigmoidal dose-response curve was then fitted with an adjustable baseline using ActivityBase XE Runner software. Fitting of dose-response curves and EC50 determination were normalized as percentage of inhibition based on controls. The curve-fit model was based on a 4-parameter equation: [drawing 2]
Trypanosome cell culture. […]

Cytochrome P450 (CYP450) = Cytochrome P450 (CYP450) (Homo sapiens, UniProt P08684); assay: Cytochrome P450 inhibition profile; format: in vitro ADME; settings: Measured; CYP3A4, VG substrate; read-out: CYP3A4VG pXC50 (converted)
Experimental: The P450 inhibition profile of the inhibitors was determined as previously described.

[2] = CLND kinetic solubility assay; format: physicochemical; settings: phosphate buffered saline, pH 7.4, aqueous buffer, kinetic from dmso stock; Measured; read-out: Aq Sol
Experimental: 5 µL of 10 mM DMSO stock solution was diluted to 100 µL with pH 7.4 phosphate buffered saline, equilibrated for 1 hour at room temperature, filtered through Millipore MultiscreenHTS-PCF filter plates (MSSL BPC). The filtrate was quantified by suitably calibrated flow injection Chemi-Luminescent Nitrogen Detection.

ChromlogD assay = assay: ChromlogD assay
Experimental: The Chromatographic Hydrophobicity Index (CHI)[22] values were measured using reversed phase HPLC column (Luna C18 (2), Phenomenex, UK) with a fast acetonitrile gradient at starting mobile phase of pH = 7.4. CHI values are derived directly from the gradient retention times by using a calibration line obtained for standard compounds. The CHI value approximates to the volume % organic concentration when the compound elutes. […] The average error of the assay is ±3 CHI unit or ±0.25 ChromlogD.

Structure (SMILES)	EC50 [1] [nM]	IC50 (Cytochrome P450 (CYP450)) [nM]	solubility kinetic at 1 h [2] [µM]	PFI (ChromlogD assay)
Cn1cc(-c2ccc3nc(-c4cc(-c5cccc(CCN6CCOCC6)c5)cnc4N)[nH]c3c2)cn1 [NEU-0001121]	63.1	3160	–	–
NS(=O)(=O)c1ccc(Nc2ncc3cccc(OC4CCNCC4)c3n2)cc1 [NEU-0001122]	100	–	81 (≈ 32.4 µg/mL)	3.78
COc1cc(/C=N/Nc2ncnc3c2cnn3C(C)C)ccc1O [NEU-0001125]	1000	–	235 (≈ 76.7 µg/mL)	6.34
